Results reported in PMC4336329 (PLoS ONE, 2015).
The campaign covered roughly 310,000 compounds. About 2,200 (0.71%) showed an effect of 50% or more. Effects have a minus sign here. The list shows a part of the results.

Each molecule was assayed against human ether-à-go-go-related gene (hERG) potassium channel (human, UniProt Q12809) (assay: primary screen, population patch clamp on CHO cells stably expressing hERG).
human ether-à-go-go-related gene (hERG) potassium channel, sequence (Q12809 whole entry, looked up): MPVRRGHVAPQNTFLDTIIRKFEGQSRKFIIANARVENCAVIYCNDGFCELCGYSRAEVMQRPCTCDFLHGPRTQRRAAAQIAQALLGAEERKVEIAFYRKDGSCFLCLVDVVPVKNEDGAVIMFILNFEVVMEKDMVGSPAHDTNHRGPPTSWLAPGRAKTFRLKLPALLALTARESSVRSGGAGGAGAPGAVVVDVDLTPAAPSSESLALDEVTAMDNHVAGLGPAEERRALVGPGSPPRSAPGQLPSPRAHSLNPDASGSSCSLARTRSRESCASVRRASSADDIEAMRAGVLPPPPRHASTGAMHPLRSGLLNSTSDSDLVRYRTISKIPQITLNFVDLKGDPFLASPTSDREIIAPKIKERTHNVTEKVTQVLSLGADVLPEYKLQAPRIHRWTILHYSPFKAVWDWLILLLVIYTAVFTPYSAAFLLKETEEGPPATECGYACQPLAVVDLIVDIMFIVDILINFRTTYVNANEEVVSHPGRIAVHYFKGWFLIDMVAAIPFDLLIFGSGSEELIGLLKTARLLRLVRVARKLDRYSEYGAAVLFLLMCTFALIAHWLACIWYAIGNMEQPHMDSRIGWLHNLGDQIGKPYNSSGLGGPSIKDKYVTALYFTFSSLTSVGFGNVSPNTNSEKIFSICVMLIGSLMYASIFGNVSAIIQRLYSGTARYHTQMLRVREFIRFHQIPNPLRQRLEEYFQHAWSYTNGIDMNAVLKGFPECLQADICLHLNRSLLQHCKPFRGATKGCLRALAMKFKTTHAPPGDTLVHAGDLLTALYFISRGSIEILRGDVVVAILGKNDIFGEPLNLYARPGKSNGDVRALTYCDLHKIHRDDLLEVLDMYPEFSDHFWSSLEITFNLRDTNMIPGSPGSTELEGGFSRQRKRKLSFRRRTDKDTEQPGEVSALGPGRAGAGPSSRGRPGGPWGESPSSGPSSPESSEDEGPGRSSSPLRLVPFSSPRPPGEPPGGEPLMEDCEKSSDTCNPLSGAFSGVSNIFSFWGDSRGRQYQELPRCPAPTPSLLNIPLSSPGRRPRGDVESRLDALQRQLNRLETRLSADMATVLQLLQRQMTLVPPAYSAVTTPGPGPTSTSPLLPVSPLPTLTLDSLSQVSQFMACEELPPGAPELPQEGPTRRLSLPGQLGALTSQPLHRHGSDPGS
`Cc1ccc(S(=O)(=O)CC(N)=O)cc1` was tested, and the “hERG current change (%, negative = inhibition) at 1uM” value was -0.125%. `O=C(Cc1ccccc1)NC1CCS(=O)(=O)C1` (stereo not drawn) was tested, and the “hERG current change (%, negative = inhibition) at 1uM” value was 9.39%. For `CCOC(=O)N1CCN(C(=O)CN(c2cccc(C(F)(F)F)c2)S(=O)(=O)c2ccccc2)CC1`, the “hERG current change (%, negative = inhibition) at 1uM” value was 2.99%. With `COC(=O)CCn1nnc(-c2ccc(C)cc2)n1` the “hERG current change (%, negative = inhibition) at 1uM” value was 13.6%. `Cc1cccc(N=Nc2c(N)n[nH]c2-c2ccc(Cl)cc2)c1` was tested, and the “hERG current change (%, negative = inhibition) at 1uM” value was 7.73%. With `COc1ccccc1N1CCN(C(=O)c2cc(C(C)(C)C)oc2C)CC1` the “hERG current change (%, negative = inhibition) at 1uM” value was 14.3%. With `O=C(O)c1cccc(Cn2cc(Br)cn2)c1` the “hERG current change (%, negative = inhibition) at 1uM” value was 5.26%. With `O=[N+]([O-])c1ccc(C2Oc3ccccc3C3CC(c4ccccc4)=NN32)s1` (stereo not drawn) the “hERG current change (%, negative = inhibition) at 1uM” value was -0.0184%. In the case of `CCOc1ccccc1CN1CCCC(C(=O)Nc2cccc(-n3cccn3)c2)C1` (stereo not drawn), the “hERG current change (%, negative = inhibition) at 1uM” value is reported as -23.6%. With `Cc1ccc(O)c(NC(=S)NC(=O)Cc2ccc(Cl)cc2)c1` the “hERG current change (%, negative = inhibition) at 1uM” value was 15.8%. `COc1cc(C(=O)Oc2ccccc2N)cc(OC)c1OC` was tested, and the “hERG current change (%, negative = inhibition) at 1uM” value was 6.9%. For `COc1cc(NC(=O)c2ccc(CNc3c(N4CCCC4)c(=O)c3=O)cc2)cc(OC)c1OC`, the “hERG current change (%, negative = inhibition) at 1uM” value was 5.58%. In the case of `CCN(CC(=O)Nc1ccc(NC(C)=O)cc1)C(=O)c1ccc(N2CCC(C)CC2)c([N+](=O)[O-])c1`, the “hERG current change (%, negative = inhibition) at 1uM” value is reported as -3.07%. `COC(=O)c1nn(-c2ccc(-c3ccccc3)cc2)cc1O` was tested, and the “hERG current change (%, negative = inhibition) at 1uM” value was 10.8%. For `CC1(C)CC(=O)C=C(Nc2ccc(OCC(F)(F)C(F)F)cc2)C1`, the “hERG current change (%, negative = inhibition) at 1uM” value was -28.1%. With `Cc1cccc2cc(CN(Cc3ccco3)C(=O)c3cccs3)c(=O)[nH]c12` the “hERG current change (%, negative = inhibition) at 1uM” value was 3.9%. In the case of `CCOC(=O)c1sc(NS(=O)(=O)c2ccccc2)nc1C`, the “hERG current change (%, negative = inhibition) at 1uM” value is reported as 11.2%. `CN1CCC(N(C)S(=O)(=O)c2ccc(NC(=O)COc3ccc(Br)cc3Cl)cc2)CC1` was tested, and the “hERG current change (%, negative = inhibition) at 1uM” value was 10.9%. In the case of `COc1ccccc1NS(=O)(=O)c1cccc(C(=O)OCC(=O)Nc2cc(C)on2)c1`, the “hERG current change (%, negative = inhibition) at 1uM” value is reported as -10.8%. For `CC(=O)N1CCN(c2ccc(Nc3ncnc4c3oc3ccccc34)cc2)CC1.Cl`, the “hERG current change (%, negative = inhibition) at 1uM” value was -11.4%. For `Cn1c(O)c(C2=NN(C(=O)CCl)C(c3ccccc3)C2)c(=O)n(C)c1=O` (stereo not drawn), the “hERG current change (%, negative = inhibition) at 1uM” value was 10.4%. `Oc1ccccc1-c1cc(-c2ccc(F)cc2)n[nH]1` was tested, and the “hERG current change (%, negative = inhibition) at 1uM” value was 12%. For `COc1cc(O)c2c(c1)OC(C)(C)CC2=O`, the “hERG current change (%, negative = inhibition) at 1uM” value was 12.3%. For `O=C(O)CSCC(=O)N1CCN(S(=O)(=O)c2ccccc2)CC1`, the “hERG current change (%, negative = inhibition) at 1uM” value was 16.2%. With `CN1CCCC(OC(=O)/C(C#N)=C/c2ccccc2)C1.Cl` (stereo not drawn) the “hERG current change (%, negative = inhibition) at 1uM” value was 11.5%. `C=CCNc1nc(N)c([N+](=O)[O-])c(NCCO)n1` was tested, and the “hERG current change (%, negative = inhibition) at 1uM” value was 8.73%. `Cc1ccc(S(=O)(=O)NC2=NCN(CCN3CCOCC3)CN2)cc1` was tested, and the “hERG current change (%, negative = inhibition) at 1uM” value was 8.91%. With `CCN(CC)C(=O)Cn1cc(S(=O)(=O)CC(=O)NCc2ccc(F)cc2)c2ccccc21` the “hERG current change (%, negative = inhibition) at 1uM” value was 8.35%. In the case of `O=c1cc(-c2ccccc2)[nH]c2nc3ccccc3n12`, the “hERG current change (%, negative = inhibition) at 1uM” value is reported as 12%. `CCN(CC(=O)Nc1ccc(N2CCOCC2)cc1)C(=O)c1ccc(C#N)cc1` was tested, and the “hERG current change (%, negative = inhibition) at 1uM” value was 4.8%. In the case of `O=C(CCN1CCc2ccccc2C1)Nc1ccc(F)cc1`, the “hERG current change (%, negative = inhibition) at 1uM” value is reported as -9.01%. `COc1cc(-c2csc(NC3CCCCC3)n2)cc(OC)c1OC` was tested, and the “hERG current change (%, negative = inhibition) at 1uM” value was 10.4%. In the case of `COc1ccc(NS(=O)(=O)c2cccc(NC(=O)CCS(=O)(=O)c3ccccc3)c2)cc1`, the “hERG current change (%, negative = inhibition) at 1uM” value is reported as 5.33%. In the case of `Cc1nnc(SCC(=O)Nc2cc(C(F)(F)F)ccc2N2CCOCC2)o1`, the “hERG current change (%, negative = inhibition) at 1uM” value is reported as 8.14%. With `Cc1cccc(N=Nc2c(C)[nH]n(-c3ccccc3)c2=O)c1` the “hERG current change (%, negative = inhibition) at 1uM” value was 15.5%. `COCCn1nnnc1C(c1cc2ccc(OC)cc2[nH]c1=O)N1CCc2ccccc2C1` (stereo not drawn) was tested, and the “hERG current change (%, negative = inhibition) at 1uM” value was -0.0705%. In the case of `Cc1cccc(NC(=S)NC(=O)/C=C/c2ccco2)n1`, the “hERG current change (%, negative = inhibition) at 1uM” value is reported as 10.5%. For `CCN(C(=O)COC(=O)c1nc2nc(C)cc(C)n2n1)C1CCCCC1`, the “hERG current change (%, negative = inhibition) at 1uM” value was 12.6%. With `COC(=O)c1[nH]c2cccc(Cl)c2c1NC(=O)CN(C)C1CCCCC1` the “hERG current change (%, negative = inhibition) at 1uM” value was 2.44%. In the case of `O=C(Nc1cccc(-n2cnnn2)c1)C1CCCN(Cc2cccc(C(F)(F)F)c2)C1` (stereo not drawn), the “hERG current change (%, negative = inhibition) at 1uM” value is reported as 13.9%. For `COc1ccc(N2CC(NS(=O)(=O)c3cccs3)CC2=O)cc1OC` (stereo not drawn), the “hERG current change (%, negative = inhibition) at 1uM” value was 3.05%. For `Cc1cc(Br)cc(C)c1NC(=O)c1ccccc1[N+](=O)[O-]`, the “hERG current change (%, negative = inhibition) at 1uM” value was 16.2%. In the case of `COc1ccc(S(=O)(=O)c2ccccc2)cc1NS(=O)(=O)c1cccc(C(=O)O)c1`, the “hERG current change (%, negative = inhibition) at 1uM” value is reported as 3.44%. `Cc1ccc(Cl)cc1N1CCN(C(=O)c2cc3c(=O)n(C)c4ccccc4c3n2C)CC1` was tested, and the “hERG current change (%, negative = inhibition) at 1uM” value was 10.2%. With `O=[N+]([O-])c1cccc(Cl)c1NCCNc1ncc(C(F)(F)F)cc1Cl` the “hERG current change (%, negative = inhibition) at 1uM” value was 10.6%.
